# From the supplement of paper PMC3334620
# The full ranking holds about 33,000 sequences; the median of “E-score (-0.5 to 0.5)” is about -0.04, and the highest 2% start at about 0.36. The list shows a part of the results.
# Target: T1, Hmlalpha2 (UniProt P0CY09)
# T1 sequence: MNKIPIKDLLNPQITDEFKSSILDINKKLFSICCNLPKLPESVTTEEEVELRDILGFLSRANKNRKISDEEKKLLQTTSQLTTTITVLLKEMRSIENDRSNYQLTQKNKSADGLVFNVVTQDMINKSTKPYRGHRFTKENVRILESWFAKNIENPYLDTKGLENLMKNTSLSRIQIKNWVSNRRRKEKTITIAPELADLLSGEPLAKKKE
# Assay: PBM E-score (8-mer binding enrichment) (E-score (-0.5 to 0.5)); higher = stronger / more preferred TF binding; most listed sequences are background and not binding sites
# Conditions: protein concentration: 200 nM; construct: GST-full length
# Outline: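 Universal all-10-mer Agilent arrays, double-stranded by primer extension on fresh or once-stripped slides, were probed with about 100-200 nM GST-tagged yeast transcription factors made by PURExpress. Fluorescent anti-GST detected bound protein, and masliner normalised the scans. E-scores from the Universal PBM Analysis Suite were given to each ungapped eight-base word pooled with its reverse complement.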
row,Sequence,PBM E-score
1,CACTTAGC,-0.143
2,CCTGTTCA,-0.0193
3,AAATTTTC,-0.233
4,ATAATAGC,-0.036
5,CAACGCAC,0.17
6,CTAGTCTC,-0.13
7,TACACGTA,0.428
8,AATGAGGT,0.0115
9,CGTCATCA,-0.0179
10,CCCTACAC,0.247
11,CTGTGAGC,0.0267
12,GGAGGATA,-0.087
13,ATTTCTGG,0.0188
14,ATCTCGAA,-0.0321
15,AGCAGGCC,-0.0862
16,AATAGTCA,-0.0249
17,AACGTCTC,0.0704
18,CTACGCTA,-0.0737
19,ATTTAAGG,-0.144
20,TGAGGGAA,-0.126
21,AATCATGG,0.0457
22,ATCTCCGG,-0.202
23,ATTAATAA,0.212
24,AACGAGCA,0.118
25,ATCCTATG,-0.116

row,Sequence,PBM E-score
1,GCTCCAAA,-0.0984
2,CATGGTAC,0.0805
3,GGATGGGA,-0.134
4,AGGTCCTA,-0.241
5,GCTTGGTA,0.123
6,AAGAACGA,-0.0521
7,CTGATCAC,-0.105
8,CACTTCTA,-0.0114
9,AAAGGCTG,-0.1
10,CATCGGGG,-0.209
11,ACGTCAGG,-0.124
12,TCGGTACA,0.154
13,CGCACTTA,-0.0398
14,AAAAGCCA,-0.0535
15,TAGTACAA,0.244
16,CCCGCAGG,-0.0462
17,CCCGTGAG,-0.193
18,TGATCCCA,-0.134
19,GCTTTGAA,0.0448
20,ATGTAGTC,0.37
21,CGGAGTAC,-0.126
22,GGTAACCA,-0.00348
23,CACTACAG,0.126
24,CAGATGCC,-0.21
25,CCATTCAG,-0.187

row,Sequence,PBM E-score
1,CGCGGGCC,-0.163
2,GACGGGGA,-0.268
3,ATTGTGGA,0.00701
4,CGTGGAAC,-0.121
5,ACGTGAAC,0.116
6,GATGTTAA,0.383
7,AATCAATC,0.107
8,CTCCGTTA,-0.0425
9,ACAGATAA,0.0265
10,AGCGTACC,-0.23
11,TCGCCTCA,-0.118
12,GTATGCGA,0.138
13,CCCGAATC,-0.286
14,TCCCAGAA,-0.207
15,TCTCTCCA,-0.206
16,ACACTGTA,0.116
17,CCTTACTA,0.0121
18,ATATTCGA,-0.166
19,ATTATTTA,0.272
20,AAGCGCAG,-0.101
21,ACGTGTAA,0.482
22,CAAGGACC,-0.0531
23,AGGCGGGG,-0.0978
24,CATTACCA,0.0553
25,ATCCTCCC,-0.258

row,Sequence,PBM E-score
1,AAATGCCA,-0.269
2,CCGTGCAC,-0.176
3,GGCGCGAC,-0.0499
4,AGAAAGTA,0.227
5,CCTCCCCC,-0.415
6,GTGCTCAA,0.197
7,AGTGCCCC,-0.347
8,CATCGAGG,-0.124
9,ACCCACTA,0.0139
10,ATCATGAT,0.202
11,CGCCATTC,-0.284
12,ACGTGAAA,0.216
13,TAGGGTAA,0.0367
14,AAGGCACA,0.0471
15,ACGTCAAG,0.0653
16,GGTCATAA,-0.0587
17,CCTACCCC,-0.417
18,AACAGTGG,-0.0879
19,ATCTTTCG,-0.143
20,GATAGTAC,0.101
21,CTGCCGAC,-0.232
22,AAATCAGA,0.0685
23,ACATAAAA,0.228
24,CCCCGGAA,-0.168
25,CAACCTGG,-0.0248

row,Sequence,PBM E-score
1,ACGTCGAT,0.207
2,ACTAACTC,0.0701
3,ATTCTCCA,-0.0753
4,AGACGGGA,-0.184
5,ACTTGTCT,0.117
6,CCACGCCC,-0.323
7,CCCCCACA,-0.289
8,ACAGACAT,0.182
9,ACGTTTGC,0.046
10,GTCTTTCA,-0.169
11,ACCAATCA,-0.0195
12,AGGGCCCG,-0.267
13,TACCATGA,-0.122
14,CTGATAAG,0.00466
15,ACACTTTA,0.22
16,CCGTCATA,-0.135
17,CAATTAGC,-0.0608
18,AAGCGGAC,-0.209
19,GACCGCGC,-0.197
20,ATCGGGAG,-0.238
21,AACCGCTT,-0.0491
22,ATTCGCTG,-0.051
23,CGAGAAAC,-0.0161
24,GCGAAGTA,0.0525
25,ACCGGGGC,-0.283

row,Sequence,PBM E-score
1,CACGGTGG,0.0263
2,CTTCACAA,0.0306
3,ATCGACAC,0.212
4,ACGGTGAC,-0.0477
5,CCACGCTC,-0.335
6,ACAATGAG,-0.062
7,GCTGGTCA,-0.185
8,ATATGCAG,-0.177
9,CCTCAAAG,-0.142
10,AGGGTCGA,-0.187
11,AGCAGTGA,0.0703
12,CCGTTTAG,-0.0825
13,AACTGTCT,-0.0823
14,ATGGTGGA,-0.173
15,ACCTCAGT,-0.0509
16,AGTGAGTC,-0.148
17,AAGCGTTA,-0.0682
18,ATTTAGAG,0.0168
19,GCCCTTCC,-0.276
20,CAATTTGC,-0.138
21,GACGCCAC,-0.189
22,ATCGGACC,-0.227
23,CCCCCAAC,-0.224
24,GTAGCAGA,0.0249
25,ACCCCGCG,-0.131

row,Sequence,PBM E-score
1,TAGAACCA,0.0563
2,AAGGAAGC,-0.375
3,GCAAGATA,0.00488
4,CCTGTGGA,-0.332
5,GTGCTGGA,-0.0877
6,GTAATAAC,0.392
7,GAGGTTTA,-0.016
8,AGAGGTGC,-0.212
9,CTAGATGA,-0.172
10,CAGGCACA,-0.166
11,GCGACCGC,-0.229
12,ACGCTAAC,0.127
13,ATGCCGGC,0.0142
14,ACCTTCCA,-0.0872
15,AGGGCTTA,-0.188
16,ACGACCTA,-0.0288
17,AATTCGCT,0.122
18,ATGCAGTG,0.12
19,AGCGTGAG,-0.18
20,AATGTGGT,0.163
21,CGGACTCA,-0.159
22,AATAACCC,-0.0911
